Measured values as given in the supplement of paper PMC8728848.
Some of the results follow.

Experiments:
Assay in all cases: glycan array binding signal (z-score within array); higher = stronger binding
Details in all cases: glycan notation: IUPAC condensed, linker removed
[1] = biological target: Man(a1-3)[Man(a1-6)]Man(a1-6)[Man(a1-3)]Man
Summary of the method: (§1)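 Columns mapping to the same glycan were averaged after glycan names were converted to IUPAC-condensed notation. The data come from 3228 arrays in the Consortium for Functional Glycomics database, limited to those with an available protein sequence. Binding is reported as a within-array Z-score averaged across arrays of one protein sequence and across linkers.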

[2] = biological target: Man(a1-3)[Man(a1-6)]Man(a1-6)[Man(a1-3)]Man(b1-4)GlcNAc(b1-4)GlcNAc
Summary of the method: as §1

[3] = biological target: Man(a1-3)[Man(a1-6)]Man(b1-4)GlcNAc(b1-4)GlcNAc
Summary of the method: as §1

Man(a1-6)Man = biological target: Man(a1-6)Man
Summary of the method: as §1

Man(b1-4)GlcNAc = biological target: Man(b1-4)GlcNAc
Summary of the method: as §1

Neu5Ac(a2-3)Gal = biological target: Neu5Ac(a2-3)Gal
Summary of the method: as §1

[4] = biological target: Neu5Ac(a2-3)Gal(b1-3)GalNAc
Summary of the method: as §1

[5] = biological target: Neu5Ac(a2-3)Gal(b1-3)GalNAc(b1-3)Gal(a1-4)Gal(b1-4)Glc
Summary of the method: as §1

[6] = biological target: Neu5Ac(a2-3)Gal(b1-3)GalNAc(b1-3)Gal(b1-4)GlcNAc
Summary of the method: as §1

[7] = biological target: Neu5Ac(a2-3)Gal(b1-3)GalNAc(b1-4)[Neu5Ac(a2-3)]Gal(b1-4)Glc
Summary of the method: as §1

[8] = biological target: Neu5Ac(a2-3)Gal(b1-3)GalNAc6S
Summary of the method: as §1

[9] = biological target: Neu5Ac(a2-3)Gal(b1-3)GlcNAc
Summary of the method: as §1

[10] = biological target: Neu5Ac(a2-3)Gal(b1-3)GlcNAc(b1-3)Gal(b1-3)GlcNAc
Summary of the method: as §1

[11] = biological target: Neu5Ac(a2-3)Gal(b1-3)GlcNAc6S
Summary of the method: as §1

[12] = biological target: Neu5Ac(a2-3)Gal(b1-3)[Fuc(a1-4)]GlcNAc
Summary of the method: as §1

[13] = biological target: Neu5Ac(a2-3)Gal(b1-3)[Fuc(a1-4)]GlcNAc(b1-3)Gal(b1-4)[Fuc(a1-3)]GlcNAc
Summary of the method: as §1

[14] = biological target: Neu5Ac(a2-3)Gal(b1-3)[Neu5Ac(a2-3)Gal(b1-4)]GlcNAc
Summary of the method: as §1

[15] = biological target: Neu5Ac(a2-3)Gal(b1-3)[Neu5Ac(a2-6)]GalNAc
Summary of the method: as §1

Neu5Ac(a2-3)Gal(b1-4)Glc = biological target: Neu5Ac(a2-3)Gal(b1-4)Glc
Summary of the method: as §1

[16] = biological target: Neu5Ac(a2-3)Gal(b1-4)GlcNAc
Summary of the method: as §1

[17] = biological target: Neu5Ac(a2-3)Gal(b1-4)GlcNAc(b1-2)Man(a1-3)[GlcNAc(b1-2)Man(b1-4)GlcNAc(b1-2)Man(a1-6)]Man(b1-4)GlcNAc(b1-4)GlcNAc
Summary of the method: as §1

[18] = biological target: Neu5Ac(a2-3)Gal(b1-4)GlcNAc(b1-2)Man(a1-3)[Neu5Ac(a2-6)Gal(b1-4)GlcNAc(b1-2)Man(a1-6)]Man(b1-4)GlcNAc(b1-4)GlcNAc
Summary of the method: as §1

[19] = biological target: Neu5Ac(a2-3)Gal(b1-4)GlcNAc(b1-3)Gal(b1-3)GlcNAc
Summary of the method: as §1

[20] = biological target: Neu5Ac(a2-3)Gal(b1-4)GlcNAc(b1-3)Gal(b1-4)GlcNAc
Summary of the method: as §1

[21] = biological target: Neu5Ac(a2-3)Gal(b1-4)GlcNAc(b1-3)Gal(b1-4)GlcNAc(b1-3)Gal(b1-4)GlcNAc
Summary of the method: as §1

[22] = biological target: Neu5Ac(a2-3)Gal(b1-4)GlcNAc(b1-3)Gal(b1-4)[Fuc(a1-3)]GlcNAc
Summary of the method: as §1

[23] = biological target: Neu5Ac(a2-3)Gal(b1-4)GlcNAc(b1-6)[Gal(b1-3)]GalNAc
Summary of the method: as §1

[24] = biological target: Neu5Ac(a2-3)Gal(b1-4)GlcNAc(b1-6)[Neu5Ac(a2-3)Gal(b1-3)]GalNAc
Summary of the method: as §1

[25] = biological target: Neu5Ac(a2-3)Gal(b1-4)GlcNAc6S
Summary of the method: as §1

[26] = biological target: Neu5Ac(a2-3)Gal(b1-4)[Fuc(a1-3)]GlcNAc
Summary of the method: as §1

[27] = biological target: Neu5Ac(a2-3)Gal(b1-4)[Fuc(a1-3)]GlcNAc(b1-3)Gal
Summary of the method: as §1

[28] = biological target: Neu5Ac(a2-3)Gal(b1-4)[Fuc(a1-3)]GlcNAc(b1-3)Gal(b1-4)GlcNAc
Summary of the method: as §1

[29] = biological target: Neu5Ac(a2-3)Gal(b1-4)[Fuc(a1-3)]GlcNAc(b1-3)Gal(b1-4)[Fuc(a1-3)]GlcNAc(b1-3)Gal(b1-4)[Fuc(a1-3)]GlcNAc
Summary of the method: as §1

[30] = biological target: Neu5Ac(a2-3)Gal(b1-4)[Fuc(a1-3)]GlcNAc(b1-6)[Gal(b1-3)]GalNAc
Summary of the method: as §1

[31] = biological target: Neu5Ac(a2-3)Gal(b1-4)[Fuc(a1-3)]GlcNAc6S
Summary of the method: as §1

[32] = biological target: Neu5Ac(a2-3)Gal6S(b1-4)GlcNAc
Summary of the method: as §1

[33] = biological target: Neu5Ac(a2-3)Gal6S(b1-4)[Fuc(a1-3)]GlcNAc
Summary of the method: as §1

Neu5Ac(a2-3)GalNAc = biological target: Neu5Ac(a2-3)GalNAc
Summary of the method: as §1

[34] = biological target: Neu5Ac(a2-3)GalNAc(b1-4)GlcNAc
Summary of the method: as §1

[35] = biological target: Neu5Ac(a2-3)[GalNAc(b1-4)]Gal(b1-4)Glc
Summary of the method: as §1

[36] = biological target: Neu5Ac(a2-3)[GalNAc(b1-4)]Gal(b1-4)GlcNAc
Summary of the method: as §1

[37] = biological target: Neu5Ac(a2-3)[Neu5Ac(a2-6)]GalNAc
Summary of the method: as §1

Neu5Ac(a2-6)Gal = biological target: Neu5Ac(a2-6)Gal
Summary of the method: as §1

Neu5Ac(a2-6)Gal(b1-4)Glc = biological target: Neu5Ac(a2-6)Gal(b1-4)Glc
Summary of the method: as §1

[38] = biological target: Neu5Ac(a2-6)Gal(b1-4)GlcNAc
Summary of the method: as §1

B1: mLPHN-1 (Mus musculus), Q80TR1 (protein)
chain: MARLAAALWSLCVTTVLVTSATQGLSRAGLPFGLMRRELACEGYPIELRCPGSDVIMVENANYGRTDDKICDADPFQMENVQCYLPDAFKIMSQRCNNRTQCVVVAGSDAFPDPCPGTYKYLEVQYDCVPYIFVCPGTLQKVLEPTSTHESEHQSGAWCKDPLQAGDRIYVMPWIPYRTDTLTEYASWEDYVAARHTTTYRLPNRVDGTGFVVYDGAVFYNKERTRNIVKYDLRTRIKSGETVINTANYHDTSPYRWGGKTDIDLAVDENGLWVIYATEGNNGRLVVSQLNPYTLRFEGTWETGYDKRSASNAFMVCGVLYVLRSVYVDDDSEAAGNRVDYAFNTNANREEPVSLAFPNPYQFVSSVDYNPRDNQLYVWNNYFVVRYSLEFGPPDPSAGPATSPPLSTTTTARPTPLTSTASPAATTPLRRAPLTTHPVGAINQLGPDLPPATAPAPSTRRPPAPNLHVSPELFCEPREVRRVQWPATQQGMLVERPCPKGTRGIASFQCLPALGLWNPRGPDLSNCTSPWVNQVAQKIKSGENAANIASELARHTRGSIYAGDVSSSVKLMEQLLDILDAQLQALRPIERESAGKNYNKMHKRERTCKDYIKAVVETVDNLLRPEALESWKDMNATEQVHTATMLLDVLEEGAFLLADNVREPARFLAAKQNVVLEVTVLNTEGQVQELVFPQEYPSENSIQLSANTIKQNSRNGVVKVVFILYNNLGLFLSTENATVKLAGEAGTGGPGGASLVVNSQVIAASINKESSRVFLMDPVIFTVAHLEAKNHFNANCSFWNYSERSMLGYWSTQGCRLVESNKTHTTCACSHLTNFAVLMAHREIYQGRINELLLSVITWVGIVISLVCLAICISTFCFLRGLQTDRNTIHKNLCINLFLAELLFLVGIDKTQYEVACPIFAGLLHYFFLAAFSWLCLEGVHLYLLLVEVFESEYSRTKYYYLGGYCFPALVVGIAAAIDYRSYGTEKACWLRVDNYFIWSFIGPVSFVIVVNLVFLMVTLHKMIRSSSVLKPDSSRLDNIKSWALGAIALLFLLGLTWAFGLLFINKESVVMAYLFTTFNAFQGVFIFVFHCALQKKVHKEYSKCLRHSYCCIRSPPGGTHGSLKTSAMRSNTRYYTGTQSRIRRMWNDTVRKQTESSFMAGDINSTPTLNRGTMGNHLLTNPVLQPRGGTSPYNTLIAESVGFNPSSPPVFNSPGSYREPKHPLGGREACGMDTLPLNGNFNNSYSLRSGDFPPGDGGPEPPRGRNLADAAAFEKMIISELVHNNLRGASGGAKGPPPEPPVPPVPGVSEDEAGGPGSADRAEIELLYKALEEPLLLPRAQSVLYQSDLDESESCTAEDGATSRPLSSPPGRDSLYASGANLRDSPSYPDSSPEGPNEALPPPPPAPPGPPEIYYTSRPPALVARNPLQGYYQVRRPSHEGYLAAPSLEGPGPDGDGQMQLVTSL
glycan array binding signal (z-score) [1]: -0.429 | glycan array binding signal (z-score) [2]: -0.345 | glycan array binding signal (z-score) [3]: -0.51 | glycan array binding signal (z-score) (Man(a1-6)Man): -0.5 | glycan array binding signal (z-score) (Man(b1-4)GlcNAc): -0.414 | glycan array binding signal (z-score) (Neu5Ac(a2-3)Gal): -0.076 | glycan array binding signal (z-score) [4]: -0.256 | glycan array binding signal (z-score) [5]: -0.244 | glycan array binding signal (z-score) [6]: -0.227 | glycan array binding signal (z-score) [7]: -0.478 | glycan array binding signal (z-score) [8]: -0.162 | glycan array binding signal (z-score) [9]: 0.014 | glycan array binding signal (z-score) [10]: -0.317 | glycan array binding signal (z-score) [11]: 0.22 | glycan array binding signal (z-score) [12]: 0 | glycan array binding signal (z-score) [13]: -0.207 | glycan array binding signal (z-score) [14]: -0.26 | glycan array binding signal (z-score) [15]: -0.372 | glycan array binding signal (z-score) (Neu5Ac(a2-3)Gal(b1-4)Glc): -0.085 | glycan array binding signal (z-score) [16]: -0.042 | glycan array binding signal (z-score) [17]: -0.365 | glycan array binding signal (z-score) [18]: 0.068 | glycan array binding signal (z-score) [19]: 0.063 | glycan array binding signal (z-score) [20]: -0.055 | glycan array binding signal (z-score) [21]: -0.433 | glycan array binding signal (z-score) [22]: -0.402 | glycan array binding signal (z-score) [23]: -0.321 | glycan array binding signal (z-score) [24]: -0.36 | glycan array binding signal (z-score) [25]: 0.645 | glycan array binding signal (z-score) [26]: -0.127 | glycan array binding signal (z-score) [27]: -0.184 | glycan array binding signal (z-score) [28]: 0.073 | glycan array binding signal (z-score) [29]: -0.378 | glycan array binding signal (z-score) [30]: 0.142 | glycan array binding signal (z-score) [31]: 0.276 | glycan array binding signal (z-score) [32]: -0.345 | glycan array binding signal (z-score) [33]: -0.065 | glycan array binding signal (z-score) (Neu5Ac(a2-3)GalNAc): 0.587 | glycan array binding signal (z-score) [34]: -0.288 | glycan array binding signal (z-score) [35]: -0.653 | glycan array binding signal (z-score) [36]: -0.307 | glycan array binding signal (z-score) [37]: -0.186 | glycan array binding signal (z-score) (Neu5Ac(a2-6)Gal): -0.169 | glycan array binding signal (z-score) (Neu5Ac(a2-6)Gal(b1-4)Glc): 0.002 | glycan array binding signal (z-score) [38]: 0.157
